Laboratory results published in the supplement of paper PMC9446081.
Screen size: about 39,000 compounds; about 220 (0.56%) showed activity. The list shows a part of the results.

What follows are molecules tested on Escherichia coli K-12 BW25113 (assay: relative growth (OD600 normalised to plate interquartile mean) (fraction); higher = less growth inhibition, active = 0.2 or less). Conditions: 50 µM; LB; incubation time: overnight (16-24 h).
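Note: static incubation at 37 °C against the wild-type strain, values averaged over two biological replicates.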

Row | Structure (SMILES) | relative growth
1 | Cc1noc(C)c1NC(=O)Nc1ccc2c(c1)C(=O)N([C@@H](C)CO)C[C@H](C)[C@H](CN(C)CC1CCCCC1)OCCCC[C@@H](C)O2 | inactive: 1.05
2 | Cn1c(=O)c2c(ncn2CC(=O)O)n(C)c1=O | inactive: 1.09
3 | Cc1noc(C)c1S(=O)(=O)N(C)C[C@@H]1OCCCC[C@H](C)Oc2ccc(NS(C)(=O)=O)cc2C(=O)N([C@@H](C)CO)C[C@H]1C | inactive: 0.987
4 | C[C@H](CO)N1C[C@H](C)[C@H](CN(C)CC2CC2)Oc2ccc(NC(=O)CCN3CCOCC3)cc2C1=O | inactive: 1.01
5 | Cc1noc(C)c1NC(=O)N[C@@H]1C=C[C@@H](CC(=O)N2CCN(C)CC2)O[C@H]1CO | inactive: 0.99
6 | COc1ccc(NC(=O)N(C)C[C@@H]2OCCCC[C@@H](C)Oc3ccc(NC(=O)c4ccccc4)cc3C(=O)N([C@H](C)CO)C[C@@H]2C)cc1 | inactive: 0.998
7 | Cc1noc(C)c1NC(=O)Nc1ccc2c(c1)C(=O)N([C@@H](C)CO)C[C@H](C)[C@@H](CN(C)Cc1ccc(C(F)(F)F)cc1)OCCCC[C@@H](C)O2 | inactive: 0.986
8 | COc1ccc(-c2cnc3c(c2)C(=O)N([C@H](C)CO)C[C@H](C)[C@H](CN(C)S(=O)(=O)c2cccc(OC)c2)O3)cc1 | inactive: 0.999
9 | C[C@@H]1CN([C@@H](C)CO)C(=O)c2cc(NC(=O)NC3CCCCC3)ccc2O[C@@H]1CN(C)Cc1ccc(Oc2ccccc2)cc1 | inactive: 1.06
10 | COc1ccc(NC(=O)Nc2ccc3c(c2)C(=O)N([C@H](C)CO)C[C@H](C)[C@@H](CN(C)S(=O)(=O)c2ccc(C)cc2)OCCCC[C@H](C)O3)cc1 | inactive: 1.04
11 | C[C@H]1CN([C@@H](C)CO)S(=O)(=O)c2ccc(Br)cc2O[C@H]1CN(C)C(=O)c1cccc(F)c1 | inactive: 1.02
12 | CN(C)CCCNC(=O)C[C@@H]1CC[C@H]2[C@@H](COC[C@@H](O)CN2C(=O)c2cc(Cl)cc(Cl)c2)O1 | inactive: 1.01
13 | COc1ccc(NC(=O)N(C)C[C@@H]2Oc3ccc(NC(=O)Cn4cnnn4)cc3C(=O)N([C@@H](C)CO)C[C@@H]2C)cc1 | inactive: 0.988
14 | COc1ccc(S(=O)(=O)Nc2ccccc2CN(C)C/C=C/c2ccc(Cl)cc2)cc1.O=P(=O)OO | inactive: 1.01
15 | Cc1noc(C)c1NC(=O)N(C)C[C@H]1Oc2ccc(NC(=O)c3ccncc3)cc2CC(=O)N([C@@H](C)CO)C[C@@H]1C | inactive: 0.984
16 | O=C(C[C@H]1C=C[C@@H](NC(=O)CN2CCOCC2)[C@H](CO)O1)NC1CCC1 | inactive: 0.999
17 | COc1ccc(S(=O)(=O)Nc2ccc3c(c2)C(=O)N([C@@H](C)CO)C[C@H](C)[C@H](CN(C)C(=O)CCC(F)(F)F)OCCCC[C@H](C)O3)cc1 | inactive: 0.992
18 | Nc1ccccc1O | inactive: 0.899
19 | Cc1ccccc1S(=O)(=O)N1C[C@H](O)COC[C@@H]2O[C@H](CC(=O)N3CCN(C)CC3)CC[C@H]21 | inactive: 1.01

Row | Structure (SMILES) | relative growth
20 | COc1ccc(NC(=O)Nc2ccc3c(c2)C(=O)N([C@@H](C)CO)C[C@H](C)[C@H](CN(C)C(=O)NC2CCCCC2)OCCCC[C@H](C)O3)cc1 | inactive: 1.02
21 | Cc1cccc(OC[C@H](O)Cn2c(N3CCN(C)CC3)nc3c2c(=O)n(C)c(=O)n3C)c1 | inactive: 1.01
22 | Nc1nnc([C@H]2CCCO2)s1 | inactive: 0.983
23 | COCC(=O)Nc1ccc2c(c1)OC[C@@H](C)N(Cc1cccc(F)c1)C[C@H](C)[C@@H](OC)CN(C)C2=O | inactive: 0.988
24 | C[C@@H]1CCCCO[C@H](CN(C)C(=O)Nc2ccc(F)cc2)[C@@H](C)CN([C@H](C)CO)C(=O)c2cc(NC(=O)Cc3ccccc3)ccc2O1 | inactive: 1.01
25 | Cc1ccc(-c2ccc3c(c2)O[C@H](CN(C)C(=O)Nc2ccc(C(F)(F)F)cc2)[C@@H](C)CN([C@@H](C)CO)S3(=O)=O)cc1 | inactive: 0.977
26 | C[C@@H]1CCCCO[C@H](CN(C)C(=O)Nc2ccc(C(F)(F)F)cc2)[C@@H](C)CN([C@H](C)CO)C(=O)c2cc(NS(=O)(=O)c3ccc(F)cc3)ccc2O1 | inactive: 0.984
27 | CC(=O)Oc1cc2c(c(C)c1OC(C)=O)CC=C1[C@@]2(C)CC[C@@]2(C)[C@H]3C[C@](C)(C(=O)O)CC[C@]3(C)CC[C@]12C | inactive: 1.01
28 | C[C@H]1CN([C@@H](C)CO)C(=O)c2cc(NC(=O)CCCN(C)C)ccc2O[C@@H]1CN(C)S(=O)(=O)c1ccc(F)cc1 | inactive: 0.994
29 | Cc1noc(C)c1S(=O)(=O)Nc1cccc2c1O[C@@H](CN(C)C(=O)Nc1ccc3c(c1)OCO3)[C@@H](C)CN([C@H](C)CO)C2=O | inactive: 1.01
30 | C[C@@H]1CN([C@@H](C)CO)C(=O)c2c(c3ccccc3n2C)-c2ccccc2CO[C@@H]1CN(C)C(=O)Nc1ccc2c(c1)OCO2 | inactive: 1.03
31 | C=CCNC(=O)C(=O)NC[C@H]1OCCCN1S(=O)(=O)c1ccccc1 | inactive: 1
32 | COc1ccc(S(=O)(=O)N(C)C[C@@H]2Oc3ccc(NS(=O)(=O)c4ccccc4)cc3CC(=O)N([C@H](C)CO)C[C@@H]2C)cc1 | inactive: 0.988
33 | CN(C)C(=O)C[C@@H]1CC[C@H](NC(=O)C2CC2)[C@H](CO)O1 | inactive: 1.04
34 | C[C@@H]1CCCCO[C@H](CN(C)Cc2ccc(C(=O)Nc3ccccc3N)cc2)[C@@H](C)CN([C@H](C)CO)C(=O)c2cc(N(C)C)ccc2O1 | inactive: 1
35 | C[C@@H]1CN([C@H](C)CO)S(=O)(=O)c2ccc(C#Cc3ccccc3F)cc2O[C@@H]1CN(C)C(=O)Cc1cccnc1 | inactive: 1.01
36 | CC(C)[Si](C#C[Si](C(C)C)(C(C)C)C(C)C)(O[C@H](c1ccccc1)c1cn(Cc2ccccc2)nn1)C(C)C | inactive: 0.979
37 | C[C@H](CO)N1C[C@H](C)[C@H](CN(C)Cc2ccc(-c3ccccc3)cc2)Oc2ccc(NC(=O)NC3CCCCC3)cc2C1=O | inactive: 1.04
38 | C[C@@H]1CN([C@@H](C)CO)C(=O)c2cc(NC(=O)Cn3cnnn3)ccc2O[C@H]1CN(C)S(C)(=O)=O | inactive: 1
